{
  "source": "PubChem BioAssay AID624296",
  "about": "(National Center for Advancing Translational Sciences (NCATS), 2012)",
  "note": "Values joined by “and” are separate entries in the source; they are usually repeats but may differ in a detail not shown here. Identical values can stand only once. Among all 350,000 compounds or so, about 9,900 (2.8%) were called active. The shares of active, inactive and inconclusive entries below differ from those in the screen. The call rests on the fitted dose curve; in most records, active means well fitted activation curve with a large enough effect; inconclusive means small, poorly fitted or top-dose-only effect; inactive means no such curve, though single readings can be large or run the other way. A potency beside an inconclusive call is a rough fit, not a confirmed value. Potency means the concentration at half of the fitted maximal effect; tags describe the fitted curve by direction and shape.",
  "data": [
    {"experiment": "A quantitative high throughput screen for small molecules that induce DNA re-replication in MCF 10a normal breast cells; further: nearly all actives have a fitted effect of over 50% in size; on activity, positive = re-replication: % of control where 0% means no effect.", "details": "MCF 10A DNA re-replication, Hoechst nuclear intensity, 48 h; activity, positive = re-replication: at 46.1 µM (top of the series)", "values": [
      {"smiles": "CC(/C=C1\\SC(=S)N(CCC(=O)Nc2cccc(C(=O)O)c2)C1=O)=C\\c1ccccc1", "Potency": "inconclusive: 29.1 µM [activator, single point]"},
      {"smiles": "Cc1ccccc1NC(=O)Cc1nc(COC(=O)c2ccc(NC(N)=O)cc2)cs1", "activity, positive = re-replication": "inactive: -16.2%"},
      {"smiles": "Cn1c(-c2ccc3c(c2)OCO3)cnc1N", "Potency": "inconclusive: 29.1 µM [activator, single point]"},
      {"smiles": "Clc1ccc(Oc2nc(N3CCOCC3)nc(N3CCOCC3)n2)c(C2CCCCC2)c1", "Potency": "inconclusive: 16.4 µM [activator, partial curve, poor fit]"},
      {"smiles": "CCc1ccc(NC(=O)/C(C#N)=C\\c2ccc(OC)c(C(=O)O)c2)cc1", "Potency": "inconclusive: 16.4 µM [activator, single point]"},
      {"smiles": "COc1cccc(N2CCN(C(=O)c3cc4c(s3)-c3ccccc3OC4)CC2)c1", "Potency": "inconclusive: 29.1 µM [activator, single point]"},
      {"smiles": "COc1cc2c3nnc(-c4ccc(F)cc4)c-3cn(Cc3ccc(F)cc3)c2cc1OC", "Potency": "active: 18.4 µM"},
      {"smiles": "O=C(Cn1nc(-c2cccc([N+](=O)[O-])c2)c2ccccc2c1=O)Nc1cccnc1", "activity, positive = re-replication": "inactive: -0.716%"},
      {"smiles": "CC1CCc2c(sc3nc(CSc4n[nH]c(N)n4)[nH]c(=O)c23)C1", "note": "(stereo unspecified)", "activity, positive = re-replication": "inactive: 12.2%"},
      {"smiles": "CC(C)Cn1c(-c2cccs2)nc2nc3ccccc3nc21", "Potency": "inconclusive: 16.4 µM [activator, single point]"},
      {"smiles": "O=C1NC(=Nc2ccccc2Cl)S/C1=C\\c1cccc([N+](=O)[O-])c1O", "Potency": "inconclusive: 29.1 µM [activator, single point]"},
      {"smiles": "COc1ccccc1NC(=O)CCCn1c(=S)[nH]c2ccccc2c1=O", "activity, positive = re-replication": "inactive: 19.2%"},
      {"smiles": "c1ccc(CN=C2NN=C(c3cc4ccccc4o3)CS2)cc1", "Potency": "inconclusive: 25.9 µM [activator, single point]"},
      {"smiles": "Cc1nc(-c2ccc(Cl)cc2)sc1C1(C)CC(c2ccc(F)cc2)=NO1", "note": "(stereo unspecified)", "Potency": "active: 10.3 µM"},
      {"smiles": "CC(C)(C)c1ccc(Cn2nnc3c(=O)[nH]c(C4CCN(C(=O)Cc5cccs5)CC4)nc32)cc1", "Potency": "inconclusive: 25.9 µM [activator, single point]"},
      {"smiles": "O=C1S/C(=C\\C=C\\c2ccco2)C(=O)N1c1ccccc1", "Potency": "inconclusive: 29.1 µM [activator, single point]"},
      {"smiles": "COc1ccc(Nc2nnc(-c3ccc(C)cc3)c3ccccc23)cc1C(=O)N1CCCCC1", "Potency": "inconclusive: 25.9 µM [activator, single point]"},
      {"smiles": "CCOc1cc(CNc2ccc3cn[nH]c3c2)ccc1OC", "Potency": "inconclusive: 20.6 µM [activator, single point]"},
      {"smiles": "CCCCn1c(N)c(N(CCOC)C(=O)c2ccc(-c3ccc([N+](=O)[O-])cc3)o2)c(=O)[nH]c1=O", "Potency": "inconclusive: 5.17 µM [activator, single point]"},
      {"smiles": "Cc1cc(C(=O)N/N=C/c2ccc(Cl)c([N+](=O)[O-])c2)c(C)n1-c1ccc(F)cc1", "Potency": "active: 11.6 µM"},
      {"smiles": "NC(=S)NN=Cc1nccc2ccccc12", "Potency": "inconclusive: 1.84 µM [activator, full curve, poor fit]"},
      {"smiles": "CCC(=O)Nc1nc2ccccc2n1Cc1ccc(Cl)cc1", "Potency": "inconclusive: 16.4 µM [activator, single point]"},
      {"smiles": "CCN(CC)S(=O)(=O)c1cccc(C(=O)NNC(=O)c2ccc3[nH]c(=O)c(=O)[nH]c3c2)c1", "activity, positive = re-replication": "inactive: -0.856%"},
      {"smiles": "Cc1ccc(C)c(Sc2ccc(NC(=O)CCl)cc2)c1", "Potency": "inconclusive: 18.4 µM [activator, single point]"},
      {"smiles": "CCOc1ccc(S(=O)(=O)N(CC)CC(=O)NCc2ccco2)cc1C", "activity, positive = re-replication": "inactive: 1.61%"},
      {"smiles": "C=CC(=O)Nc1cccc(CN2C(=O)N(c3cc(OC)cc(OC)c3)Cc3cnc(NCCCCN(CC)CC)nc32)c1", "Potency": "inconclusive: 29.1 µM [activator, single point]"},
      {"smiles": "CC(=O)NS(=O)(=O)c1ccc(N=c2ssc3c2-c2ccc(C)cc2NC3(C)C)cc1", "Potency": "inconclusive: 18.4 µM [activator, single point]"},
      {"smiles": "CCCNC(=O)c1onc(CSc2ccncc2)c1C(=O)NCCC", "Potency": "inconclusive: 8.2 µM [activator, partial curve, poor fit]"},
      {"smiles": "CCCn1c(N)c(CC)c(=O)[nH]c1=O", "activity, positive = re-replication": "inactive: -0.709%"},
      {"smiles": "Cc1ccc(CSc2nnc(-c3cnccn3)n2C)cc1", "Potency": "inconclusive: 0.517 µM [activator, full curve, poor fit]"},
      {"smiles": "CCCN1CCN(C(=O)c2cc(COc3ccc(F)c(F)c3)on2)CC1", "Potency": "inconclusive: 32.6 µM [activator, partial curve, poor fit]"},
      {"smiles": "COc1c(O)ccc(/C=N/NC(=O)c2ccc3c(c2)OCCO3)c1[N+](=O)[O-]", "activity, positive = re-replication": "inactive: -10.6%"},
      {"smiles": "Nc1ccccc1SCC(=O)Nc1nc(-c2ccccc2)cs1", "Potency": "inconclusive: 4.11 µM [activator, full curve]"},
      {"smiles": "CS(=O)(=O)Nc1cccc(C(=O)CC2(O)C(=O)Nc3ccc(Br)cc32)c1", "note": "(stereo unspecified)", "Potency": "active: 8.2 µM"},
      {"smiles": "COc1ccc(Cl)cc1C(Nc1cccnc1)c1ccc2cccnc2c1O", "note": "(stereo unspecified)", "Potency": "inconclusive: 29.1 µM [activator, single point]"},
      {"smiles": "COC(=O)c1ccc(COC(=O)c2cnccn2)cc1", "Potency": "inconclusive: 6.51 µM [activator, single point]"},
      {"smiles": "O=C(Cc1ccc(S(=O)(=O)N2CCOCC2)s1)N(Cc1ccccc1)c1ccccc1", "Potency": "inconclusive: 20.6 µM [activator, partial curve, poor fit]"},
      {"smiles": "COC1=CC(=O)CC(C)C12Oc1c(Cl)c(OC)cc(OC)c1C2=O", "note": "(stereo unspecified)", "Potency": "inconclusive: 25.9 µM [activator, single point] and inconclusive: 29.1 µM [activator, single point]"},
      {"smiles": "CC(C)(C)c1ccc(C(=O)Nc2ccc(S(=O)(=O)Nc3cnc4ccccc4n3)cc2)cc1", "Potency": "inconclusive: 5.8 µM [activator, partial curve, poor fit]"},
      {"smiles": "COc1ccc(C(=O)NCCNc2nc3c(C)cccc3cc2C#N)cc1", "Potency": "active: 18.4 µM"},
      {"smiles": "C[C@@H](C(=O)Nc1ccc2ccccc2c1)[C@H]1C[C@]1(C)[C@H](NC(=O)c1cccnc1)c1ccccc1", "Potency": "inconclusive: 18.4 µM [activator, partial curve, poor fit]"},
      {"smiles": "CN(c1ccc(C(=O)NC2CCCCC2)cc1)S(=O)(=O)c1ccccc1", "Potency": "inconclusive: 11.6 µM [activator, partial curve]"},
      {"smiles": "CCC1CCCCN1c1nc2c(C=O)c(C)nn2c2ccccc12", "note": "(stereo unspecified)", "Potency": "inconclusive: 23.1 µM [activator, partial curve, poor fit]"},
      {"smiles": "Cc1nc(NC(=O)C2CC2)sc1C(=O)Nc1ccccc1", "Potency": "inconclusive: 6.51 µM [activator, single point]"},
      {"smiles": "O=C(N/N=C\\c1ccc(-c2ccc([N+](=O)[O-])cc2)o1)C1COc2ccccc2O1", "note": "(stereo unspecified)", "Potency": "active: 20.6 µM"},
      {"smiles": "Cc1cc2oc(=O)cc(Cn3ncc(Cl)c(Cl)c3=O)c2cc1Cl", "Potency": "active: 7.31 µM"},
      {"smiles": "Cc1cc2c(cc1C)CSC(c1ccccc1OC(=O)C(C)(C)C)SC2", "Potency": "active: 11.6 µM"},
      {"smiles": "Cc1ccc(C(=O)CSc2nnc(CNc3ccc(C)cc3C)n2Cc2ccco2)cc1", "Potency": "inconclusive: 1.16 µM [activator, full curve, poor fit]"},
      {"smiles": "COc1cccc(-c2nc3ccc(C(=O)NC(C)Cc4cccnc4)cc3o2)c1", "note": "(stereo unspecified)", "activity, positive = re-replication": "inactive: 26%"},
      {"smiles": "CC(=O)c1cccc(N(CC(=O)NCCc2ccccc2)C(=O)c2csnn2)c1", "Potency": "inconclusive: 29.1 µM [activator, single point]"},
      {"smiles": "S=c1[nH]nc(C2CCCCC2)n1/N=C/c1ccc(Cl)cc1", "Potency": "inconclusive: 29.1 µM [activator, single point]"},
      {"smiles": "COc1cc(CNC(=O)c2ccccc2NC(=O)C2=C(C)OCCS2)cc(OC)c1OC", "activity, positive = re-replication": "inactive: 2.45%"},
      {"smiles": "O=C(Nc1cccc(Cl)c1)c1nc[nH]c1C(=O)N1CCc2ccccc2C1", "Potency": "inconclusive: 23.1 µM [activator, partial curve, poor fit]"},
      {"smiles": "Cc1ccc(NCc2ccc(O)c3ncccc23)cc1C", "Potency": "inconclusive: 32.6 µM [activator, partial curve, poor fit]"},
      {"smiles": "COc1ccc(OC)c(-n2nnnc2SCC(=O)NCc2ccc3c(c2)OCO3)c1", "Potency": "inconclusive: 16.4 µM [activator, single point]"},
      {"smiles": "COC(=O)c1ccc2c(c1)c(-c1ccccc1)c(-c1ccccc1)n2C", "Potency": "inconclusive: 13 µM [activator, partial curve]"},
      {"smiles": "CSc1nnc(NC(=O)c2ccc(S(=O)(=O)N3CCOCC3)cc2)s1", "activity, positive = re-replication": "inactive: -3.06%"},
      {"smiles": "CCOC(=O)Cc1csc(NC(=O)CCc2ccc(S(=O)(=O)N3CCOCC3)cc2)n1", "Potency": "inconclusive: 23.1 µM [activator, partial curve, poor fit]"},
      {"smiles": "Cc1ccc(C(=O)O/N=C\\c2ccc(N3CCCCC3)c([N+](=O)[O-])c2)cc1", "activity, positive = re-replication": "inactive: 9.38%"},
      {"smiles": "COc1ccc(-c2cc(C(=O)OCC(=O)NC3CC3)c3ccccc3n2)cc1OC", "Potency": "inconclusive: 20.6 µM [activator, partial curve, poor fit]"},
      {"smiles": "Cc1ccc(S(=O)(=O)/C(C#N)=C/c2c[nH]c3ccccc23)cc1", "Potency": "inconclusive: 29.1 µM [activator, single point]"},
      {"smiles": "CCOC(=O)c1cc(CC)sc1NC(=O)COC", "Potency": "inconclusive: 5.8 µM [activator, single point]"},
      {"smiles": "CSc1nc2n(n1)C(c1cc(Br)ccc1F)C(C(=O)N(C)C)=C(C)N2", "note": "(stereo unspecified)", "activity, positive = re-replication": "inactive: 5.01%"},
      {"smiles": "O=C(NCCc1ccc(F)cc1)Nc1ccc([N+](=O)[O-])cc1", "Potency": "inconclusive: 18.4 µM [activator, partial curve, poor fit]"},
      {"smiles": "COCCN(Cc1ccc(F)cc1)C(=O)c1cc2ccccc2oc1=O", "activity, positive = re-replication": "inactive: -0.785%"},
      {"smiles": "O=C(c1cccc([N+](=O)[O-])c1)N1CC2C3C=CC(C3)C2C1", "note": "(stereo unspecified)", "Potency": "inconclusive: 29.1 µM [activator, single point]"}
    ]}
  ]
}
